In paper PMC10668032:
Some of the results follow. At the low end of the ranking the order means little.

target: SIX1-Q177R homeodomain (UniProt Q15475); assay: universal protein binding microarray; conditions: Universal all-10-mer PBM (8x60K, AMADID 030236), 300 nM GST-tagged protein, Alexa Fluor 488 anti-GST; buffer, salt, pH and temperature not stated; high values mean tight binding; most listed sequences are background and not binding sites; double strand, one strand shown

| Sequence | binding signal [E-score] |
| --- | --- |
| AATCAGGA | -0.187 |
| ACGAAGCC | -0.136 |
| AGTCGATC | 0.113 |
| GCATCTCA | -0.207 |
| TGCTCCAA | -0.113 |
| GCCGTCCA | -0.134 |
| ACAGTTAA | 0.0701 |
| CAAAGCAC | 0.0574 |
| AATTCTAG | -0.0596 |
| ACTAGCTG | -0.0464 |
| AGCGATGG | -0.268 |
| GTCAGCAC | 0.0873 |
| CCTCGACG | 0.0464 |
| CCGCACAC | 0.303 |
| GTGCATCA | -0.104 |
| AGAATAAT | -0.0581 |
| AGCCTACC | -0.0493 |
| ACTTCAAC | 0.0755 |
| GATCTGGA | -0.0728 |
| ACCAATGG | 0.012 |
| CAACTCCA | 0.000825 |
| AAGATGAG | -0.133 |

| Sequence | binding signal [E-score] |
| --- | --- |
| AAACTGTG | -0.0881 |
| GCTATCCA | -0.188 |
| ACTATTAC | -0.0342 |
| AGCGCGGG | 0.263 |
| CCCTGCAC | 0.178 |
| AGCACTGG | 0.17 |
| ATCCCTCA | 0.0788 |
| ATCTTAAC | 0.136 |
| CACCGTCA | 0.209 |
| GCCGGTGA | -0.0418 |
| CCGCCCCG | 0.101 |
| GGAACATA | -0.106 |
| AGGCGACA | 0.25 |
| CCGGATCG | 0.199 |
| GCTAGAAC | -0.16 |
| GTAATATA | 0.0199 |
| AAATTCAC | -0.0445 |
| CGGCCATC | -0.115 |
| CATGGAAA | -0.0353 |
| ATGGTTGA | -0.075 |
| CGGTTAGA | -0.0519 |
| GGATGAAC | -0.0336 |

| Sequence | binding signal [E-score] |
| --- | --- |
| CCCAACGA | 0.0283 |
| CCCGAGCC | -0.023 |
| ACTAGATA | 0.0168 |
| AGTATGGA | -0.121 |
| CACGCCGC | 0.13 |
| AGGTAACG | 0.099 |
| GGGAAACC | -0.0305 |
| CTAAATGA | -0.0401 |
| AGTAAGCA | -0.16 |
| CCACGACG | -0.0808 |
| AGACATTG | -0.21 |
| ATGGTCAC | -0.195 |
| ATGCTTTA | 0.0368 |
| CGTGATCA | -0.0942 |
| GACCAAGC | -0.114 |
| GTAAACGA | 0.014 |
| AATCCACC | 0.0411 |
| ATTATTCC | 0.000165 |
| AAGATCCA | -0.123 |
| AGACCATA | -0.213 |
| ATCGCGTG | 0.183 |
| GAATACGC | 0.0445 |

| Sequence | binding signal [E-score] |
| --- | --- |
| CGGTCTAG | -0.0991 |
| CATTATCG | -0.0607 |
| CCTTAAGA | -0.134 |
| ACGCTACA | 0.161 |
| CTAGAGGA | -0.118 |
| AAGTTCAG | -0.114 |
| AGCTTGCG | -0.205 |
| TAATTAAA | -0.0974 |
| GAACTAAC | -0.178 |
| CACAGGAG | 0.168 |
| GCAGGCTA | -0.0279 |
| CTACGTCC | -0.00151 |
| CCCATGGG | 0.149 |
| CGTACTAA | 0.0529 |
| TGAGGACA | 0.0712 |
| AGCTTCAC | -0.2 |
| CATAAGTC | -0.391 |
| CGGTACAG | 0.1 |
| CATCGCAC | -0.0711 |
| GTCGCAAA | 0.0292 |
| GACGCAAC | -0.0242 |
| GAATTTCC | -0.292 |

| Sequence | binding signal [E-score] |
| --- | --- |
| ACGTCCCC | 0.0834 |
| CGCCAATC | -0.134 |
| ACTTTTAG | -0.0932 |
| GACAGGCC | -0.113 |
| AATGACAC | 0.464 |
| GCCCCGAA | -0.0782 |
| ACGAGTAC | 0.105 |
| GGAACAAA | -0.121 |
| AGCACGTC | -0.0483 |
| CACTCAGA | 0.135 |
| AGCTTCCA | -0.333 |
| ACGTAGTA | -0.00472 |
| TACGCGCA | 0.102 |
| GAACATAC | -0.0661 |
| AGGATCCT | 0.171 |
| CATTTTAC | 0.0106 |
| GACCGGAA | -0.0546 |
| CCCATAAG | 0.0661 |
| CTGCCAAC | -0.00445 |
| CCACCGGA | 0.203 |
| ACACGACA | 0.404 |
| GGTTCTTA | -0.0396 |
